Data as given in paper PMC4336329 (PLoS ONE, 2015).
About 14,000 (4.5%) of roughly 310,000 compounds showed an effect of 50% or more. The effect is printed as a negative number. This is one part of the list.

The compounds below were run against human ether-à-go-go-related gene (hERG) potassium channel (human, UniProt Q12809) (assay: primary screen, population patch clamp on CHO cells stably expressing hERG).
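Also: peak tail current of the secondary pulse compared with the same well before compound.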

Sequence of human ether-à-go-go-related gene (hERG) potassium channel (Q12809 whole entry, looked up): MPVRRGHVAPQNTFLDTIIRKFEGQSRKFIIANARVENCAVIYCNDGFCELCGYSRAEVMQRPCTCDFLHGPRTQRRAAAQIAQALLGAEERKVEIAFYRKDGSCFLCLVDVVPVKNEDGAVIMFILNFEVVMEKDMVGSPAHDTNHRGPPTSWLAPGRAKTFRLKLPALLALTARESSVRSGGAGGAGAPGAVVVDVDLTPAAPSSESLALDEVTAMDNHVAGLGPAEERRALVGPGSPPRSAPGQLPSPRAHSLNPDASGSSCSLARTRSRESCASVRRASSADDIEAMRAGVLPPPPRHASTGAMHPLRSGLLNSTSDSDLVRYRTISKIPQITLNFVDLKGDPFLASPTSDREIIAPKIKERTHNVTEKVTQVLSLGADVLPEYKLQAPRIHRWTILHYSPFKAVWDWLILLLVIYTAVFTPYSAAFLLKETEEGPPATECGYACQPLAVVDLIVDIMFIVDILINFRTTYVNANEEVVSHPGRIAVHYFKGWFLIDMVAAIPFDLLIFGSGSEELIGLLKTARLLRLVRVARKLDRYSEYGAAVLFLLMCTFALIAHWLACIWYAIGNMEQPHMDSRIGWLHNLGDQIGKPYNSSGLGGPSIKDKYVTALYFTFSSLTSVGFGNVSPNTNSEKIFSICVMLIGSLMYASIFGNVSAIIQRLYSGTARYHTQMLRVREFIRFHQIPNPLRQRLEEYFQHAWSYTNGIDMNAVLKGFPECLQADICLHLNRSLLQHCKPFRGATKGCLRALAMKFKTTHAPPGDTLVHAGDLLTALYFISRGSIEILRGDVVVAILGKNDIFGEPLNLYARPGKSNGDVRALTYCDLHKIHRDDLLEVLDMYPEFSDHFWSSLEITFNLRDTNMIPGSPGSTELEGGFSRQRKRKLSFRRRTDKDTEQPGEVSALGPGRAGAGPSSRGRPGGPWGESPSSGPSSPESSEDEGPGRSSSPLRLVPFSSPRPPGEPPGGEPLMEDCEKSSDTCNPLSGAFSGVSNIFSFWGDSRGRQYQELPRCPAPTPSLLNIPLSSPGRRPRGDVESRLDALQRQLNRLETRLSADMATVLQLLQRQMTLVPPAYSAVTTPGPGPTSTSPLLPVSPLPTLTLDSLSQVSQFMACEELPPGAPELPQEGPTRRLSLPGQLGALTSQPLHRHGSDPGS

Row | SMILES | hERG current change (%, negative = inhibition) at 10uM [%]
1 | CSC(=NC#N)N1CCN(c2c(C)cccc2C)CC1 | -14.4
2 | C[C@H]1CN=C(N(C)C)N1CC1CCC(C(C)(C)C)CC1 (stereo partly shown) | -42.7
3 | O=C(CN(C(=O)CNC(=O)c1ccco1)c1ccc(F)cc1)NC1CCCCC1 | -3.48
4 | COc1cccc(N2CCN(C(=O)c3cc(-c4ccc(F)cc4)[nH]c3C)CC2)c1 | -68.4
5 | CC(=O)Nc1cnc2ccccc2n1 | 7.12
6 | Cc1ccc(-c2cc(C(F)F)n3ncc(C(=O)Nc4c(C)nn(Cc5c(Cl)cccc5Cl)c4C)c3n2)cc1 | 23.9
7 | O=C(CSc1ccccn1)N1CCN(S(=O)(=O)c2ccc(Cl)cc2)CC1 | -33.9
8 | O=C(Nc1cccc(Cl)c1N1CCOCC1)c1ccc2c(c1)OCCO2 | -18.1
9 | C#CCOCCOCCOCCNc1nc(N2CCN(C(=O)CCCCCCCCCCNC(=O)[C@H](CCCCN)n3cc(CCCC(=O)O)nn3)CC2)nc(N2CCN(C(=O)CCCCCCCCCCNC(=O)[C@H](CCCCN)n3cc(CCCC(=O)O)nn3)CC2)n1 | 0.628
10 | O=C(COC(=O)C1CC2C=CC1C2)Nc1cccc(S(=O)(=O)N2CCCCCC2)c1 (stereo not shown) | -23.2
11 | C=CCCc1ccc(C#N)c(SCc2c(C(=O)OCC)c3cc(OC(C)=O)c(Br)cc3n2C)n1 | -1.18
12 | Cc1nnc(NC(=O)c2ccc(S(=O)(=O)N3CCCCC3C)cc2)o1 (stereo not shown) | 6.64
13 | COc1cc(Cl)ccc1OCc1cc(C(=O)N(C)C2CC(C)(C)NC(C)(C)C2)no1 | -13.3
14 | CCCOc1ccc(-c2c(C(=O)N/N=C/c3ccc(OCC)cc3)nnn2-c2nonc2N)cc1 | 8.92
15 | CC(=O)C1=C(c2cccc([N+](=O)[O-])c2)N(C(C)=O)n2c(C)nnc2S1 | -19.5
16 | Cc1ccccc1C(=O)NC(C(N)=O)P(=O)(OC(C)C)OC(C)C (stereo not shown) | -55.2
17 | CCN(CC(=O)Nc1ccc(NC(C)=O)cc1)C(=O)CCCc1nc2ccccc2s1 | 2.84
18 | CCOc1ccc(NC(=S)N(Cc2ccc(Cl)cc2)Cc2ccco2)cc1 | 3.68
19 | O=C(Nc1cc(Cl)ccc1O)c1snnc1-c1ccccc1 | 19
20 | O=C(NCCCN1CCC(Cc2ccccc2)CC1)C1CC(=O)N(C2CCCCCC2)C1 (stereo not shown) | -66.8
21 | O=C(Cn1nnc(-c2ccc(N3CCOCC3)cc2)n1)N1CCOCC1 | 5.28
22 | C[C@@H](NC(=O)c1[nH]cnc1C(=O)Nc1ccc(Cl)cc1)c1ccccc1 | 15.8

Row | SMILES | hERG current change (%, negative = inhibition) at 10uM [%]
23 | CN(C)C(CNc1ccc(C(F)(F)F)cn1)c1ccccc1 (stereo not shown) | -28.5
24 | O=C(COC(=O)CC12CC3CC(CC(C3)C1)C2)Nc1cccnc1Cl | -16.8
25 | COc1ccc(F)cc1C(=O)C1CCCN(Cc2c(C)n(C)n(-c3ccccc3)c2=O)C1 (stereo not shown) | -11.5
26 | O=P1(Oc2ccccc2)C[C@@H](O)[C@@H](O)[C@H](COCc2ccccc2)O1 (stereo partly shown) | 1.68
27 | CCN(CC)S(=O)(=O)c1ccc(NS(=O)(=O)c2ccc(C)c(C)c2)cc1 | -21.6
28 | COc1ccc(Cc2nnc(NC(=O)Nc3ccc(C)cc3)s2)cc1OC | 10.2
29 | CC(NC(=O)/C=C/c1cnc2ccccc2n1)C12CC3CC(CC(C3)C1)C2 (stereo not shown) | -10.1
30 | CN(C)CCCn1c2c(c(SCC(=O)Nc3ccc4c(c3)OCCO4)nc1=O)CCC2 | -12.2
31 | CC(NCc1ccc(S(N)(=O)=O)cc1)C(=O)Nc1ccc([N+](=O)[O-])cc1Cl (stereo not shown) | -50.5
32 | O=C(CCNC(=O)c1ccc(Cl)cc1)Nc1ccccc1N1CCCCC1 | -24.5
33 | Cc1cccc(-n2c(C)cc(C)c(C#N)c2=O)c1 | 7.18
34 | Cc1c(NC(=O)c2ccc(F)c(S(=O)(=O)N3CCOCC3)c2)c(=O)n(-c2ccccc2)n1C | -3
35 | C/C(=N\NC(=O)C1COc2ccccc2O1)c1ccc(Cl)s1 (stereo not shown) | 25.7
36 | O=C(c1n[nH]c2ccccc12)N1CCN(S(=O)(=O)c2ccccc2)CC1 | -6.29
37 | CCOc1ccc(N(CC(=O)NCc2ccc(C)cc2)S(=O)(=O)c2c(C)[nH]c(=O)[nH]c2=O)cc1 | 6.73
38 | COc1cccc(NC(=O)COC(=O)C2CC(=O)N(c3ccc(C)cc3)C2)c1 (stereo not shown) | -9.93
39 | CCCC(=O)NC(C)c1nc2ccccc2n1CC (stereo not shown) | -1.82
40 | Cc1sc2nc(SCC(=O)N3CCOCC3)[nH]c(=O)c2c1C | 12.7
41 | COc1ccccc1CCC(=O)Nc1cc(S(=O)(=O)N2CCCCC2)ccc1N1CCN(C)CC1 | -26.5
42 | COc1ccccc1-c1nnc(SCC(=O)NC2CC2)n1C | -13
43 | CC(C)(C)c1ccc(S(=O)(=O)N2CCN(c3ncccn3)CC2)cc1 | 16
44 | Cc1cnc(=O)[nH]c1SCC(=O)Nc1nccs1 | 7.85

Row | SMILES | hERG current change (%, negative = inhibition) at 10uM [%]
45 | COc1ccc(NC(=O)CCSc2cc(C)c3ccccc3n2)cc1 | -11.5
46 | O=C(Cn1ncc2c([nH]c3ccccc32)c1=O)Nc1ccc(CN2CCCCC2)cc1 | -65.8
47 | CN(CCCNC(=O)c1cn(C)c2ccc(S(=O)(=O)N(C)C)cc2c1=O)c1ccccc1 | -29.4
48 | Nc1nc2sc3c(c2c(=O)s1)CCCC3 | 0.874
49 | COCCNc1nnc(SC(C)C(=O)Nc2c(C)n(C)n(-c3ccccc3)c2=O)s1 (stereo not shown) | 11.8
50 | CN1CCN(C(c2cccnc2)c2ccc3cccnc3c2O)CC1 (stereo not shown) | -4.29
51 | CCN1CCN(C(=O)/C(C#N)=C/c2ccc(OC(F)F)cc2)CC1.Cl | -74.3
52 | CC1CCN(C(=O)CCNC(=O)c2ccccc2Cl)CC1 | 8.92
53 | CC(=O)c1ccc(NC(=O)C(C)OC(=O)c2ccc(Br)o2)cc1 (stereo not shown) | -3.54
54 | Cc1ccc(C(=O)Cn2nnc(-c3ccccc3)n2)cc1 | -5.06
55 | COc1cccc(C2=NOC(C(=O)Nc3cc(C)on3)C2)c1OC (stereo not shown) | 0.74
56 | CC(C(=O)N1CCN(c2ccccc2F)CC1)c1ccc([N+](=O)[O-])cc1 (stereo not shown) | -68.4
57 | CCS(=O)(=O)N1CCC(C(=O)NCc2cccc(OC)c2)CC1 | 5.22
58 | O=C(NC(=S)NC1CCCCC1)c1ccc(Cl)cc1 | -11.6
59 | CCN(Cc1ccccc1)C(=O)CCNS(=O)(=O)c1ccc2c(c1)CC(C)N2C(C)=O (stereo not shown) | -13.8
60 | CCC(C)NS(=O)(=O)c1ccc(NC(=O)Cc2ccc(OC)cc2)cc1 (stereo not shown) | 8.01
61 | CCN(C(=O)c1ccc(C(C)(C)C)cc1)c1nnc(Cn2nnc3ccccc32)s1 | 18.6
62 | CN1CCN(c2ncnc3c2cnn3C)CC1 | 19.5
63 | Cc1c(C(=O)N2CCN(c3ccccc3)CC2)oc2c1C(=O)CC(C)(C)C2 | -13.6
64 | CC1CCN(c2ccc(-c3cccs3)nn2)CC1 | 10.1
65 | CCOc1cc(C(=O)O/N=C(\N)c2ccccn2)cc(OCC)c1OCC | -5.84
66 | CC1(c2nnc(-c3ccncc3)o2)CC(c2ccccc2)=NO1 (stereo not shown) | 12.9

Row | SMILES | hERG current change (%, negative = inhibition) at 10uM [%]
67 | CS(=O)(=O)c1ccc(Cl)c(C(=O)OCC(=O)NC2CCCCCCC2)c1 | -27.9
68 | Cc1ccc(NC2=CC(=O)C(=O)c3ccccc32)c(C)c1 | 16.7
69 | O=C(c1ccco1)c1coc2c1cc(O)c1ccccc12 | 13.4
70 | CCOC(=O)C1CCN(c2nc3ccccc3nc2C(C#N)C(=O)OC(C)C)CC1 (stereo not shown) | 17.4
71 | Cc1ccc(S(=O)(=O)N2CCN(c3ccccc3)CC2)cc1 | 13
72 | Cc1ccc(C)c(OCC(=O)N/N=C/c2ccsc2)c1 | 3.35
73 | COc1ccc(C(=O)NCC(=O)n2nc(C)cc2C)cc1OC | 18.6
74 | Cc1ccc(NC(=O)N2CCC(C(=O)NCc3ccc(F)cc3)CC2)cc1 | -52.2
75 | COc1c(OC)c(O)c2c(=O)cc(-c3c(O)cccc3O)oc2c1OC | -1.14
76 | CCN(CC)S(=O)(=O)c1cccc(NC(=O)c2ccccc2Br)c1 | -15.7
77 | COc1ccc(-c2nc3ccc(C(=O)NCC(OC)OC)cc3nc2-c2ccc(OC)cc2)cc1 | -1.79
78 | Cc1cc(C)n(CC(O)COCc2ccccc2)n1 (stereo not shown) | 4.09
79 | Cc1c(NC(=O)CCN2C(=O)c3ccccc3C2=O)c(=O)n(-c2ccccc2)n1C | 1.71
80 | Nc1ccc(C(=O)Oc2ccc([N+](=O)[O-])cc2)c(O)c1 | 15.3
81 | Cc1nn(C)cc1C(C(=O)NC1CCCCC1)N(C(=O)Cc1cccs1)c1ccc(Cl)cc1 (stereo not shown) | 13.6
82 | CSc1cccc(NC(=O)CN(c2cc(C)ccc2C)S(C)(=O)=O)c1 | -2.02
83 | CCc1ccc(NC(=O)COc2ccc(F)cc2C(=O)c2cnn(-c3ccccc3)c2)cc1 | -0.355
84 | COc1ccc(/C=N/NC(=O)c2nnn(-c3nonc3N)c2CN(C)c2ccccc2)cc1 | 9.9
85 | Cc1cc(C)cc(N(CC(=O)N2CCC(C)CC2)S(=O)(=O)c2ccccc2)c1 | -70.3
